Experimental findings from article PMC6212790 are described below.

The other results are listed elsewhere or left out. At the low end of the ranking, values are background and their order means little.

For the experiment, the target named is T1, GST-Rok-C97-191 (UniProt O34857).
T1 sequence: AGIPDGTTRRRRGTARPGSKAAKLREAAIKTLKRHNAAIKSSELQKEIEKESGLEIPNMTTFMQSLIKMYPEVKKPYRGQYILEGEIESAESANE
As to the kind of experiment: protein binding microarray.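 Further: rank score from −0.5 (least bound) to 0.5 (best bound).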 The note with it: Rok is a gene silencer of Bacillus subtilis; high values mean tight binding; most listed sequences are background and not binding sites; double strand, one strand shown.
Take ATCCAGGG: the binding signal was -0.16 E-score. As to ATCAGAAG, the binding signal came out at 0.0449 E-score. Regarding CCATCTCA, the binding signal was -0.184 E-score.

In the case of GCAGCTGC, the binding signal was -0.275 E-score. CTGGAGAC displayed a binding signal of 0.00478 E-score. The same measure for GGCGAAGA: -0.0389 E-score; for GTATATTA: 0.371 E-score.

In the case of AATATTAG, the binding signal was 0.31 E-score. In turn, ATACATCC returned a binding signal of 0.108 E-score. For ATCACAAC the value was -0.0464 E-score; for AGTCACCA, -0.102 E-score. Sequence AGTTTTGA registered a binding signal of 0.138 E-score.

Consider AACCAACT, for which the binding signal is 0.115 E-score. The sequence GTGCTTGA registered a binding signal of -0.0715 E-score. CTCTTAAA registered a binding signal of -0.0778 E-score.

For the sequence GGGGGCCA, the binding signal is -0.346 E-score.

For GAAGGCAC, the binding signal is -0.194 E-score. Sequence CGCAGTTA returned a binding signal of 0.176 E-score. Sequence AGCAGCAT registered a binding signal of -0.0485 E-score.

With ATAAAAAC, the binding signal was determined as 0.253 E-score. ACGCGACC: the binding signal was -0.0671 E-score. For CGGTAACA the value was 0.146 E-score; for GGGTTAAC, -0.176 E-score. For AAAACACT the value was 0.0281 E-score.

As for AGTATCAA, the binding signal is 0.161 E-score. The sequence CTAATGAA yielded a binding signal of 0.0247 E-score. Sequence TAGTACGA came in with a binding signal of 0.303 E-score. AACGCAGT displayed a binding signal of -0.231 E-score. In turn, TCCGTAGA yielded a binding signal of 0.0606 E-score. As to AAAAGTGC, the binding signal was -0.068 E-score.

Consider GTGTAAGA, for which the binding signal was 0.118 E-score. Take ATCTTACA: the binding signal was found to be 0.147 E-score. Consider CCCGAGAA, for which the binding signal is -0.0119 E-score. In turn, CTCCGGGA came in with a binding signal of -0.0788 E-score. Regarding ATTACGAC, the binding signal is 0.256 E-score. For AAGTTTGT the value was 0.168 E-score.

In turn, ATCGGTAA displayed a binding signal of 0.202 E-score.

CTCAACTC registered a binding signal of -0.198 E-score. Regarding TCGCCAAA, the binding signal was -0.173 E-score.

On to ATCCCGGG, for which the binding signal is -0.186 E-score. ACGAGAGT displayed a binding signal of -0.0523 E-score. With GAGTGGCA, the binding signal was -0.176 E-score. Regarding CACACCCA, the binding signal is -0.195 E-score.

In turn, AGTGGGGC registered a binding signal of -0.3 E-score. The same measure for CGATGGTA: 0.179 E-score; for ATTATGCG: 0.0439 E-score; for ACGGAAGT: -0.0476 E-score. AGTTCATG returned a binding signal of 0.07 E-score. Consider GTGGCTAA, for which the binding signal is 0.0117 E-score.

As to ATTGAGTG, the binding signal was 0.146 E-score. On to GACGCACC, for which the binding signal was -0.181 E-score. In the case of AATCCGAA, the binding signal turned out to be 0.0539 E-score. With CAGTCTGA, the binding signal was -0.233 E-score. For ACCTTTAT the value was 0.03 E-score; for AATCCGGA, 0.0521 E-score. In turn, CACACAAC yielded a binding signal of 0.034 E-score. AACTTTAT came in with a binding signal of 0.134 E-score. The same measure for CCCTTATC: 0.0243 E-score; for ACTTGAAT: 0.0478 E-score.

Take CGCGGGGC: the binding signal was -0.337 E-score. For AAGCCCCC the value was -0.386 E-score.

TGTAAAAA: the binding signal is 0.34 E-score. In the case of GTTGTTTA, the binding signal was found to be 0.00836 E-score. Consider ACACGCGA, for which the binding signal is -0.0741 E-score. Sequence AACTACGC showed a binding signal of 0.126 E-score. The sequence GTGTAGAA gave a binding signal of 0.293 E-score. As to GCCTCGTA, the binding signal is -0.16 E-score.

Sequence CCCTCTCA registered a binding signal of -0.28 E-score.

CAGCTCCC showed a binding signal of -0.279 E-score. As for GCCGCCAC, the binding signal is -0.0821 E-score. Sequence AATTTCCA had a binding signal of 0.135 E-score. The same measure for ACCCGCGT: -0.276 E-score; for GCTTTTTA: 0.118 E-score. Sequence CCGTTTCA displayed a binding signal of -0.0867 E-score. The same measure for AATGTCCA: -0.00167 E-score; for AAGTGTGT: 0.111 E-score; for TAGACAAA: 0.07 E-score. The same measure for AACCCTAC: 0.172 E-score; for CCGTGAGG: -0.139 E-score. For ACGCGTCG the value was -0.108 E-score; for CTAACATC, 0.0635 E-score. Turning to AAAATAAT, the binding signal is 0.26 E-score.

Consider AACGTTTA, for which the binding signal turned out to be 0.0689 E-score. Sequence AATGCACT returned a binding signal of -0.0309 E-score. In turn, ACTGGGCC registered a binding signal of -0.244 E-score. The sequence ATGTCGAC yielded a binding signal of 0.126 E-score.

Regarding CATAATGC, the binding signal worked out at 0.181 E-score. The same measure for TCGCACAA: 0.00373 E-score; for CACTATCA: 0.175 E-score; for CTCTGCGC: -0.0737 E-score.

Take ACACCCTG: the binding signal is -0.0485 E-score. With GTCTGCAC, the binding signal is -0.126 E-score. For the sequence GGCCGGCC, the binding signal was -0.261 E-score. The same measure for ACTCACAT: 0.117 E-score; for TAATCTAA: 0.232 E-score; for GGGGTAAC: -0.159 E-score. As for CTTTAAAG, the binding signal is -0.0598 E-score. Turning to CCGGCATC, the binding signal was -0.148 E-score.

On to ACATTAAC, for which the binding signal was determined as 0.203 E-score.

As to ATAATTCA, the binding signal worked out at 0.245 E-score. In the case of AGTGTATC, the binding signal was determined as 0.0994 E-score. With CATACAAA, the binding signal amounted to 0.219 E-score. Take CTGGAAGC: the binding signal was -0.21 E-score.

AACACCCG: the binding signal came to 0.0543 E-score. For GCGGCCAA, the binding signal was -0.114 E-score. With CCTAATAG, the binding signal stood at 0.0655 E-score. CCTAACTC gave a binding signal of -0.105 E-score. GACCCCGA yielded a binding signal of -0.269 E-score. As to CATCCCCC, the binding signal is -0.349 E-score.

As to CATCCGCG, the binding signal is -0.243 E-score. The same measure for AACAGGCG: -0.0782 E-score; for ATTCTGCA: 0.122 E-score.

Consider GAGCTTCC, for which the binding signal is -0.268 E-score. On to ACATGGTA, for which the binding signal was determined as 0.196 E-score. With AGTATCAT, the binding signal turned out to be 0.166 E-score. On to CAAAGTTC, for which the binding signal is 0.0148 E-score.

Regarding GGACTCAC, the binding signal was -0.0112 E-score.

Sequence GTTAAAAC came in with a binding signal of 0.0593 E-score. Sequence CGTCTGGA had a binding signal of -0.134 E-score. Turning to ACTCCTGG, the binding signal is -0.143 E-score. For the sequence CGGTGTAC, the binding signal was -0.129 E-score. As to GTAGGGAA, the binding signal was -0.0201 E-score. The same measure for CAAATGGA: -0.0521 E-score; for CACGGGCG: -0.167 E-score.

For the sequence CAGTATCG, the binding signal is 0.128 E-score. GATCGATA had a binding signal of 0.165 E-score. For ATTCCAGC the value was -0.192 E-score. As to CAGGCCAA, the binding signal is -0.32 E-score. Sequence AATTGAGC came in with a binding signal of -0.109 E-score. In turn, AGACCGGC gave a binding signal of -0.0364 E-score.

Turning to ACATGGGG, the binding signal is -0.107 E-score. The sequence CTCTATTC displayed a binding signal of -0.103 E-score. On to GGAACCGA, for which the binding signal is -0.0576 E-score. The same measure for AATTCTCC: 0.213 E-score; for ACACGATG: 0.01 E-score. As to ATCCATCG, the binding signal is -0.0764 E-score. With AGTCCGTG, the binding signal was -0.145 E-score.

ATGAACAA gave a binding signal of 0.0288 E-score.

In turn, AGCCGTAT displayed a binding signal of -0.146 E-score. As for CGGTCCTC, the binding signal is -0.142 E-score. The sequence AGTCACGG displayed a binding signal of -0.237 E-score. The same measure for ATCGTGCC: -0.186 E-score; for CATAAATA: 0.149 E-score; for ATAATCGG: 0.072 E-score.

The sequence CCGACCCA showed a binding signal of -0.175 E-score. CACTAAGC displayed a binding signal of -0.149 E-score. The same measure for ACAGACCG: -0.107 E-score; for GATGTTGA: 0.0809 E-score; for ACTGGAAA: 0.119 E-score. GCGCACTA showed a binding signal of 0.0427 E-score. Sequence AATTCCCA returned a binding signal of 0.212 E-score. As to GCAGAACC, the binding signal is -0.0545 E-score. Sequence ACGCGTCT gave a binding signal of -0.141 E-score. The same measure for GATCACGC: -0.0269 E-score; for GGGCTTTA: -0.22 E-score. ACAAGCTA came in with a binding signal of 0.109 E-score.

As for CATGGGCC, the binding signal was -0.32 E-score. In turn, ACGTAGGG yielded a binding signal of -0.232 E-score.

Take TGAAACCA: the binding signal is -0.109 E-score. For AACATAAC, the binding signal came to 0.21 E-score. For TGTAGGAA the value was 0.162 E-score. Turning to CGATTTTC, the binding signal was -0.135 E-score. In turn, ATAATGCG gave a binding signal of 0.3 E-score. For GGCAGGGA the value was -0.261 E-score; for AATTATGT, 0.209 E-score. For AAGCAAGG the value was -0.206 E-score; for CTAATCTA, 0.348 E-score. For AGTATAAT the value was 0.289 E-score. ACCTGGAC: the binding signal is -0.203 E-score. Take CGGAGGAA: the binding signal is -0.222 E-score. The sequence AACGAAGA had a binding signal of -0.0492 E-score. Regarding TCTGCCCA, the binding signal was -0.272 E-score.
